# Reference: PubChem BioAssay AID488969 (Vanderbilt High Throughput Screening Facility, 2010)
# Over roughly 110,000 compounds, “z-score” has its median near -0.1; the highest 2% begin near 2. Some of the results follow. Active and inactive are the calls of the source.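 Rule for the calls: active = z-score in the third read window above 3 or below -3; inactive = the rest.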
# Molecular target: Metabotropic glutamate receptor 8 (Rattus norvegicus) (UniProt P70579)
# Assay: rat mGluR8 modulators via GIRK flux, primary screen, cell-based, thallium flux, HTS (AID 488969)
# Details: HEK293 rat mGluR8, GIRK (G protein-gated inwardly rectifying potassium channel) thallium flux, FluoZin2; at 10 µM; stronger effect = higher value; submaximal glutamate (EC20) added with thallium
# Sequence of UniProt P70579 (P70579 whole entry, looked up): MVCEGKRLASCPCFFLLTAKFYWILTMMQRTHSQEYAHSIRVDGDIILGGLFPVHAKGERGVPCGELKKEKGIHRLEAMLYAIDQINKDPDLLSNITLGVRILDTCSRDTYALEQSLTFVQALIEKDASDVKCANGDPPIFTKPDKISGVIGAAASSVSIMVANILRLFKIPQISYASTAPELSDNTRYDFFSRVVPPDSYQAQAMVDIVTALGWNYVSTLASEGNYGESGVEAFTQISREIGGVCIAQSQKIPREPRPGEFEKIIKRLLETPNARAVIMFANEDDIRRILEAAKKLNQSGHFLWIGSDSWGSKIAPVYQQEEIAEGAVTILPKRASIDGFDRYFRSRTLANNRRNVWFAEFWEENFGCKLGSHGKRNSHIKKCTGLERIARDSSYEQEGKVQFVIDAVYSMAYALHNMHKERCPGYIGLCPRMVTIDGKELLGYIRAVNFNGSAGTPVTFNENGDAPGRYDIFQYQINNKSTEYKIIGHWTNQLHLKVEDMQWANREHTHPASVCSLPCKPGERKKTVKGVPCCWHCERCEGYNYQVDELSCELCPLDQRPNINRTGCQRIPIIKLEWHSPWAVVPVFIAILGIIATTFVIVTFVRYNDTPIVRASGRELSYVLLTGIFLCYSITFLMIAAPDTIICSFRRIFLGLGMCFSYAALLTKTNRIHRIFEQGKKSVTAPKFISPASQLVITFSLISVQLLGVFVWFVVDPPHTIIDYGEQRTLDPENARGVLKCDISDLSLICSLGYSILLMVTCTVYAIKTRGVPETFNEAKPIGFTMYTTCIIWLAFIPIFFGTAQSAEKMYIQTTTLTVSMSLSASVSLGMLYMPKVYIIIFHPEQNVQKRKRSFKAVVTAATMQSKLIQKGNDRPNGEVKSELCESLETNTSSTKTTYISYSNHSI
row,Structure (SMILES),z-score
1,Cc1ccc(NC(=O)CSc2ncc(S(=O)(=O)c3ccccc3)c(=O)[nH]2)cc1C,0.179
2,O=C(O)CCCCCNC(=O)c1ccccc1Br,-0.0928
3,COc1ccc(N2CCN(CC(=O)Nc3cc4c(cc3C(C)=O)OCO4)CC2)cc1,-0.0992
4,CC(=O)Nc1ccc2ccc3cccc4ccc1c2c34,0.0586
5,COc1cc(-c2ccc(NC(=O)CN3CCCCC3)c(OC)c2)ccc1NC(=O)CN1CCCCC1,0.0379
6,Cc1ccccc1C(=O)NC1CCN(Cc2nnnn2Cc2ccccc2)CC1,0.0602
7,CC(C)(C)c1ccc(/C=C/C(=O)NC2=NCCS2)cc1,0.16
8,CN(CC(=O)Nc1ccccc1C(=O)N1CCCC1)S(=O)(=O)c1ccc(Cl)cc1,-0.112
9,O=C(NCCSCc1ccccc1)c1ccccc1,0.218
10,Cc1ccc(C(=O)Nc2ccc3c(c2)OCO3)cc1,0.0712
11,O=C(CSc1nnnn1-c1ccccc1)N1CCc2ccccc21,0.249
12,O=C(COc1ccccc1Cl)c1ccc2c(c1)CCCC2,-0.0996
13,CC(C)(C)C(=O)NC(=S)N1CCOCC1,-0.0566
14,O=S(=O)(c1ccc(Cl)c(Cl)c1)N1CCc2nc3ccccc3n2CC1,0.0426
15,COC(=O)Cc1ccc(NC(=S)NCC(C)C)cc1,-0.315
16,Cn1cnc(S(=O)(=O)NCc2cccs2)c1,-0.799
17,Cc1ccc(NC(=O)C2CCCN(S(=O)(=O)c3cnc[nH]3)C2)cc1F (centres undefined),-0.00916
18,N/C(=N\OC(=O)C1CCCCC1)c1cccnc1,-0.114
19,COc1ccc(N2C(=O)CSC23CCC(C(C)(C)C)CC3)cc1 (centres undefined),0.931
20,O=C(CSCCO)N1CCc2ccccc21,-0.11
21,O=c1[nH]c(N2CCN(c3ccccc3)CC2)nc2c1CCC2,-0.197
22,O=S(=O)(/N=C(/Nc1ccccc1F)c1ccccc1)c1ccccc1,-0.128
23,Cc1ccc(/C=N/NC(=O)C2CCN(Cc3ccc(F)cc3Cl)CC2)o1,-0.0632

row,Structure (SMILES),z-score
1,CC(CN1CCCCC1)OC(=O)c1ccc(Cl)cc1Cl (centres undefined),2.27
2,O=C(Cc1ccccc1)NN1C(=O)C2C3C=CC(C4CC34)C2C1=O (centres undefined),-0.0404
3,COc1cc(CNc2ccccc2SC)cc(OC)c1OC,-1.26
4,CCOC(=O)Nc1ccc2c(c1)N(C(=O)CCN1CCN(C)CC1)c1ccccc1S2,-0.15
5,COC(=O)C1=C(N)Oc2c(oc(CO)cc2=O)C1c1ccccc1F (centres undefined),-0.088
6,O=C(CN1CCc2ccccc21)NC(c1ccccc1)c1ccccc1,0.798
7,O=C(Cn1nc(-c2ccccc2)ccc1=O)N1CCOCC1,0.447
8,O=C(O)C1CCCN1S(=O)(=O)c1ccc(Cl)c(Cl)c1 (centres undefined),-0.451
9,Cn1nnc(NC(=S)NC(=O)c2ccco2)n1,-0.217
10,O=C(C1=C(O)C(=O)N(CCc2ccccc2)C1c1cccnc1)c1ccco1 (centres undefined),0.127
11,O=C(NC1CCCC1)C(c1ccc(Cl)cc1)N(Cc1ccc(F)cc1)C(=O)CCl (centres undefined),-0.0618
12,CCOc1ccc(NCCC(=O)c2ccc3c(c2)OCO3)cc1,-0.0574
13,CC(C)(C)NC(=O)Nc1ccc2nccnc2c1,0.111
14,COc1ccc(/C=C/C(=O)NCc2cnn(C)c2C)cc1COc1ccc(Br)cc1,-0.138
15,Cc1ccc(-c2nn3c(C)nnc3c3ccccc23)cc1S(=O)(=O)NCc1ccccc1,-0.413
16,O=C1OC(Oc2ccccc2)(c2ccccc2)c2ccccc21 (centres undefined),-0.37
17,O=C(CSc1nnc(NC(=O)c2ccc(S(=O)(=O)N3CCOCC3)cc2)s1)Nc1ccccc1C(F)(F)F,-0.118
18,Cc1cc(N)ccc1NC(=O)c1ccccc1,-0.132
19,c1cc2c(cc1C1=Nn3c(nnc3C3CCCCC3)SC1)OCO2,-2.36
20,Cn1c(-c2ccc(Cl)cc2)ccc(C#N)c1=O,-0.357
21,O=C(Cc1cccs1)Nc1nncs1,-0.0193
22,CC(C)(C)NC(=O)c1cccc(NC(=O)c2ccc(NC(=O)c3ccco3)cc2)c1,-1.64
23,Cn1c(SCc2cccc(Cl)c2)nc(C(F)(F)F)cc1=O,-0.00278

row,Structure (SMILES),z-score
1,Cc1noc(C)c1C(=O)N(CC(=O)NC1CCCC1)Cc1ccccc1F,-0.119
2,COc1ccc(NC(=O)NC(C(F)(F)F)C(F)(F)F)cc1,0.138
3,CCCCSc1[nH]c(=O)c(C(=O)OCC)cc1C#N,-0.384
4,C(=N\N(c1ccccc1)c1ccccc1)/c1ccc2c(c1)OCO2,0.209
5,S=C(Nc1ccc(Cl)cc1Cl)Nn1cnnc1,-0.274
6,O=C(NCCC1=CCCCC1)C(=O)NCC(c1ccco1)N1CCN(c2ccccc2F)CC1 (centres undefined),0.333
7,O=S(=O)(Nc1ccc2c(c1)nc1n2CCN(Cc2ccccc2)C1)c1ccccc1,-0.809
8,O=C1c2cccnc2C(=O)N1Cc1ccc(Cl)cc1,-0.0604
9,CC(=O)Oc1c(S(=O)(=O)c2ccccc2)c(C)nn1C(C)(C)C,-0.232
10,CCCOc1ccc([C@@H]2C3CN(C(=O)OCC)CC=C3C(C#N)=C(N)C2(C#N)C#N)cc1OC (some centres undefined),-0.338
11,COC(=O)c1c(C)nc2c(c(SC)nn2-c2ccccc2)c1N,-0.154
12,CC(C)CC(OC(=O)c1nsc(Cl)c1Cl)C(=O)NCc1cccs1 (centres undefined),-0.428
13,COc1ccc(N(CC(=O)NCCSc2ccccn2)S(C)(=O)=O)cc1Cl,-0.125
14,O=C(Cc1cccs1)Nc1ccc(S(=O)(=O)Nc2ncccn2)cc1,-0.256
15,CC1=C(C(=O)OC(C)C)C(c2ccco2)NC(=O)N1 (centres undefined),-0.0141
16,CCOc1ccc(NC(=O)CS(=O)(=O)c2cn(C)c3ccccc23)cc1,-0.209
17,CC(=O)N1CCC2(CC1)CC(=O)c1cc(OCC(=O)NCc3ccco3)ccc1O2,0.341
18,Cc1ccc(C(C(=O)NC2CCCCC2)N(C(=O)c2csnn2)C2CCCC2)o1 (centres undefined),-0.708
19,O=C(NCCCCc1ccccc1)C1CC(c2cccc([N+](=O)[O-])c2)=NO1 (centres undefined),-0.359
20,Cc1cc(-c2csc(N)n2)c(C)n1CCC(C)C,0.22
21,Cc1cc2oc(=O)cc(CSc3nc(N)cc(N)n3)c2cc1C,-0.332
22,CNCc1ccccc1OCC(=O)Nc1ccccc1,0.00673
23,O=c1oc(-c2ccccc2NS(=O)(=O)c2ccccc2)nc2ccccc12,-0.203

row,Structure (SMILES),z-score
1,O=C(NCCC1=CCCCC1)C1CCCN(S(=O)(=O)c2cccc3cccnc23)C1 (centres undefined),0.877
2,CCCN(C(=O)c1ccco1)c1nnc(-c2ccncc2)s1,-0.618
3,CN(C(=O)CSc1nc(-c2ccccc2)cn1N)C(c1ccccc1)c1ccccc1,-0.238
4,CC(CNC(=O)COc1ccccc1)OC(=O)Nc1ccc(Cl)c(Cl)c1 (centres undefined),-0.0649
5,O=C(Nc1nccs1)c1cccc(S(=O)(=O)N2CCCCC2)c1,-0.0477
6,COc1ccc(OC)c(NC(=O)NC2(C(F)(F)F)Oc3ccccc3O2)c1,-0.0406
7,O=C(CSc1ncc(-c2ccccc2)nn1)NCc1ccco1,1.16
8,COc1ccc(NC(=O)CSc2nnc(-c3ccoc3C)n2CC2CCCO2)cc1 (centres undefined),0.797
9,Cc1ccc(NC(=O)CCSc2nnc3ccccn23)cc1,0.176
10,COc1ccc(N2CCN(CC(=O)N3N=CCC3c3ccccc3)CC2)cc1 (centres undefined),-0.137
11,COc1ccc(NC(=O)C(NC(=O)CC2NC(=O)NC2=O)c2ccccc2)cc1 (centres undefined),0.0457
12,CC1CCc2c(sc3ncnc(N4CCOCC4)c23)C1 (centres undefined),-1.25
13,c1ccc(-c2noc(CSc3nnnn3-c3ccccc3)n2)cc1,2.18
14,CCN(CC)S(=O)(=O)c1ccc(-n2cnnn2)c(C)c1,0.0792
15,CCn1cc([N+](=O)[O-])c(C(=O)N2CCN(C(=O)c3ccco3)CC2)n1,-0.0369
16,CN(C)C1NC(=O)c2cc(-c3ccccc3)sc2N1 (centres undefined),0.0566
17,NC(=O)C1CCCN(S(=O)(=O)c2ccccc2)C1 (centres undefined),-0.127
18,CCc1ccccc1NC(=O)c1cnc2n(c1=O)CCS2,-0.074
19,O=C(CC1CCCCC1)NCCCN1CCOCC1,-0.0911
20,O=C1c2ccccc2C(=O)N1Cc1nc2ccccc2c(=O)n1CCCN1CCOCC1,-0.0405
21,CCN(CC)CCNc1ncnc2c1[nH]c1ccc(OC)cc12,-0.361
22,COc1ccc(NC(=O)c2nn(C34CC5CC(CC(C5)C3)C4)cc2[N+](=O)[O-])cc1,-0.0541
23,CCc1nnc(NC(=O)C(=O)NCCOC(=O)c2ccccc2Cl)s1,-0.184

row,Structure (SMILES),z-score
1,COc1ccc(/C=c2\s/c(=C/C(=O)c3ccc(C)cc3)[nH]c2=O)cc1OC,0.46
2,O=c1[nH]c2cc(Cl)ccc2n(CCNc2ncc(C(F)(F)F)cc2Cl)c1=O,0.182
3,Cn1c(NCc2c(O)ccc3ccccc23)nc2ccccc21,-0.4
4,C/C(CC(=O)Nc1ccccc1Br)=N\NC(=O)C(=O)N1CCCC1,0.773
5,Cc1ccc(Cl)cc1NC(=O)CCn1cccc1,0.427
6,CCCCc1nc(NCCN)c(C#N)c2c1CSC(C)(C)C2,0.0415
7,CC1(C)Cc2ccccc2-c2nnc(SCC(=O)Nc3nc4ccccc4s3)n21,active: -3.05
8,COc1ccc(NC2CC(=O)N(CCc3ccccc3)C2=O)cc1 (centres undefined),-0.102
9,O=C(O)c1cccc(NCc2cccnc2)c1,-0.189
10,CN(C)C/C(Cl)=C(\Cl)c1ccccc1,-0.465
11,c1cc(CSc2nnc(-c3ccc4c(c3)OCO4)o2)ccn1,-0.127
12,Cc1cc(C)c(C#N)c(Nc2ccccc2Cl)n1,-0.639
13,CCN(C)c1ccc(/C=N\n2nnnc2N)cc1,0.204
14,N#CCC1c2ccccc2CCN1C(=O)Nc1cccc(C(F)(F)F)c1 (centres undefined),-0.233
15,Cc1c(NC(=O)/C(C#N)=C/c2ccc(-c3ccccc3Cl)o2)c(=O)n(-c2ccccc2)n1C,0.0143
16,COc1ccccc1N1CCN(C(=O)CSc2nnc(NC(=O)c3ccco3)s2)CC1,0.554
17,CNS(=O)(=O)c1cccc(C(=O)OCC(=O)c2cc(C)n(-c3ccc4c(c3)OCO4)c2C)c1,1.53
18,CCOC(=O)N1CCC(NC(=O)Cc2cn(C)c3ccccc23)CC1,-0.169
19,O=C(Oc1ccc(N(Cc2cccs2)C2=NS(=O)(=O)c3ccccc32)cc1)c1ccccc1F,-0.287
20,COc1ccc(CNC(=S)Nc2cc(OC)ccc2OC)cc1,0.0129
21,CCn1c(SCC(=O)Nc2cccc(C)c2)nc2c(c1=O)SC(C)C2 (centres undefined),-1.46
22,Cn1nc([N+](=O)[O-])nc1Oc1ccc2ccccc2c1,-0.216
